Measured values taken from patent publication US20210324028A1 (Pfizer, published 2021).

Experiments:
[1] = target: T1, human IL-2Rβ (human, UniProt P14784 27-240, limits assumed); assay: SPR, steady state, fusion captured
T1 construct: also called hIL-2Rβ; IL-2 receptor beta
T1 sequence (looked up): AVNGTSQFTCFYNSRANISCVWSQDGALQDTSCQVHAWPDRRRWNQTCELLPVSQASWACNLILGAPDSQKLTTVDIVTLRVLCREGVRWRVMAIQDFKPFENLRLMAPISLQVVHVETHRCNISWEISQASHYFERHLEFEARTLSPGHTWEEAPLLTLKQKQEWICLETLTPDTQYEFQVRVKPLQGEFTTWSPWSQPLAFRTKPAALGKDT
Description: (§1) Anti-human Fc sensor chips were prepared at 25° C. with a running buffer of 10 mM HEPES, 150 mM NaCl, 0.05% (v/v) Tween-20, pH 7.4. All surfaces of a Biacore CM4 sensor chip were activated with a 1:1 (v/v) mixture of 400 mM EDC and 100 mM NHS for 7 minutes, at a flow rate of 10 μL/min. An anti-human Fc reagent (Goat anti-human IgG Fc-γ specific, SouthernBiotech, Birmingham, Ala., Catalog #2014-01) was diluted to 50 μg/mL in 10 mM sodium acetate (pH 4.5) and injected on all flow cells for 7 minutes at 20 μL/min. All flow cells were blocked with 100 mM ethylenediamine in 200 mM Borate buffer pH 8.5 for 7 minutes at 10 μL/min.
(§2) All protein interaction experiments were performed at 37° C. using a running buffer of 10 mM HEPES, 150 mM NaCl, 0.05% (v/v) Tween-20, pH 7.4, 1 mg/mL BSA. Anti-PD-1-hIL-15 fusion proteins were captured at 10 μg/mL at a flow rate of 10 μL/min for 2 minutes. Different fusion proteins were captured in flow cells 2, 3 and 4. No protein was captured onto flow cell 1 which was used as a reference surface. […] After each analyte injection, dissociation was monitored for 5 minutes followed by regeneration of all flow cells with three 60-second injections of 75 mM phosphoric acid. […] For kinetic analysis, the double-referenced sensorgrams were fit globally to a simple 1:1 Langmuir with mass transport binding model using Biacore T200 Evaluation Software version 2.0. For steady-state affinity analysis, the double-referenced equilibrium binding responses were fit with a 1:1 Langmuir steady-state model using Biacore T200 Evaluation Software version 2.0.

[2] = target: T2, mouse PD-1 on doxycycline-induced 32D[pRF770+pRF791] cells (mouse, UniProt Q02242 25-288); assay: cell-based or functional assay
T2 sequence (looked up): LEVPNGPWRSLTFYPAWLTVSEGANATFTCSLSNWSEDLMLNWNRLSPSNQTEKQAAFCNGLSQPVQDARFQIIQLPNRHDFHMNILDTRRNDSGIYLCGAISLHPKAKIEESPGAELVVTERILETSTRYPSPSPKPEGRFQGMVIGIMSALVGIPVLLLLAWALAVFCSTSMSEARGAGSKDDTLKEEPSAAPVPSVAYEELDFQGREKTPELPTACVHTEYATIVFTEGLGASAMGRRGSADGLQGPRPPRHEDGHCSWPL

[3] = target: T3, IL-15 signaling receptor on 32D[pRF770+pRF791] cells (human CD122 plus mouse CD132) (human; mouse, UniProt P14784 27-551; P34902 23-369); assay: cell-based or functional assay
T3 sequence (looked up) 1: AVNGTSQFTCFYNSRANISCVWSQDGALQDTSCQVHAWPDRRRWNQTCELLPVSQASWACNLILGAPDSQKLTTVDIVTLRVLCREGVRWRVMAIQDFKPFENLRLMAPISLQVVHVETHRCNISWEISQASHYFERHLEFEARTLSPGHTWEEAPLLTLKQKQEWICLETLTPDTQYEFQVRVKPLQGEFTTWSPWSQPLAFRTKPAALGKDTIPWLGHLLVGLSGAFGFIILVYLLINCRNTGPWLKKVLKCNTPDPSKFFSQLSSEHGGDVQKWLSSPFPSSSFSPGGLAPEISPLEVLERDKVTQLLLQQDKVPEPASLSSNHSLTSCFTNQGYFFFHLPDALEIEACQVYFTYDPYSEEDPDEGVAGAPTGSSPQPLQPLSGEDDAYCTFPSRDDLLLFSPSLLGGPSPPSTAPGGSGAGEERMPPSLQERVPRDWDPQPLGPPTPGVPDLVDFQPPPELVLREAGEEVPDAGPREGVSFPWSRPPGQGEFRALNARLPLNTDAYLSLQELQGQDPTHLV
T3 sequence (looked up) 2: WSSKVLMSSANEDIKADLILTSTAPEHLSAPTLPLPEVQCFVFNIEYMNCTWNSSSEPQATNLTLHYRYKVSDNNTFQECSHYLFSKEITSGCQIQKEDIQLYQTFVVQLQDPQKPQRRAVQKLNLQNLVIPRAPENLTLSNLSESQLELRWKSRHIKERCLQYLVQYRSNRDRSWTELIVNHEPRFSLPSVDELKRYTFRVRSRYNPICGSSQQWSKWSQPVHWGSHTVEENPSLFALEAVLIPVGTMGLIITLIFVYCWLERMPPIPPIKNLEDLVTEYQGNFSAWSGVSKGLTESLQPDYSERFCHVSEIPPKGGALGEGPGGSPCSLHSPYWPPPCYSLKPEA

[4] = target: T4, human IL-15Rα (human, UniProt Q13261 31-205, limits assumed); assay: SPR 37C, fusion captured by anti-human Fc
T4 construct: also called hIL-15Rα; IL-15 receptor alpha
Description: as §1, §2

[5] = target: T2, mouse PD-1 on doxycycline-induced …; assay: cell-based or functional assay; remark: listed apart in the source
[6] = target: T3, IL-15 signaling receptor on …; assay: cell-based or functional assay; remark: listed apart in the source
[7] = target: T4, human IL-15Rα; assay: SPR, kinetic fit, fusion captured
Description: as §1, §2

[8] = target: T1, human IL-2Rβ; assay: SPR, fusion captured
Description: as §1
as §2, with “For steady-state affinity analysis, the double-referenced equilibrium binding responses were fit with a 1:1 Langmuir steady-state model using Biacore T200 Evaluation Software version 2.0.” left out

T4 sequence (Q13261 31-205 limits assumed): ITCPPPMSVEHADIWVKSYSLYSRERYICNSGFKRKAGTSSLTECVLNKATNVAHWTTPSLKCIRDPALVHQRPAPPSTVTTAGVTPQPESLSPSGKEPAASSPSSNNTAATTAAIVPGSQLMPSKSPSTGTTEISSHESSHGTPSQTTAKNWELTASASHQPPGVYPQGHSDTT

Kd [1]: 437 nM
Fold change = EC50 (PD-1(low))/EC50 (PD-1+) [2]: 384 fold
pSTAT5 EC50 on PD-1+ 32D reporter cells [2]: 0.0118 nM
pSTAT5 EC50 on PD-1(low) 32D reporter cells [3]: 4.54 nM
binding result [4]: no binding (tested: 3000 nM)
Fold change = EC50 (PD-1(low))/EC50 (PD-1+) [5]: 230 fold
pSTAT5 EC50 on PD-1+ 32D reporter cells [5]: 0.0149 nM
pSTAT5 EC50 on PD-1(low) 32D reporter cells [6]: 3.43 nM
B1: xmPD-1-hIL15 V49R/E46G (other)
heavy 1: HHHHHHHHGGGGSGSGGEVQLVESGGGLVKPGGSLELSCAASGFTFSSYWMSWVRQAPEKGLEWVAAISPSGGSTYYADSVKGRFTISRDNAKNTLFLQMTSLRSEDTAMYYCAKESWGAYYDLWGQGTTVTVSSASTKGPSVFPLAPCSRSTSESTAALGCLVKDYFPEPVTVSWNSGALTSGVHTFPAVLQSSGLYSLSSVVTVPSSNFGTQTYTCNVDHKPSNTKVDKTVERKCRVRCPRCPAPPVAGPSVFLFPPKPKDTLMISRTPEVTCVVVAVSHEDPEVQFNWYVDGVEVHNAKTKPREEQFNSTFRVVSVLTVVHQDWLNGKEYKCKVSNKGLPSSIEKTISKTKGQPREPQVYTLPPSREEMTKNQVSLTCLVKGFYPSDIAVEWESNGQPENNYKTTPPMLDSDGSFFLYSRLTVDKSRWQQGNVFSCSVMHEALHNHYTQKSLSLSPGK
heavy 2: EVQLVESGGGLVKPGGSLELSCAASGFTFSSYWMSWVRQAPEKGLEWVAAISPSGGSTYYADSVKGRFTISRDNAKNTLFLQMTSLRSEDTAMYYCAKESWGAYYDLWGQGTTVTVSSASTKGPSVFPLAPCSRSTSESTAALGCLVKDYFPEPVTVSWNSGALTSGVHTFPAVLQSSGLYSLSSVVTVPSSNFGTQTYTCNVDHKPSNTKVDKTVERKCEVECPECPAPPVAGPSVFLFPPKPKDTLMISRTPEVTCVVVAVSHEDPEVQFNWYVDGVEVHNAKTKPREEQFNSTFRVVSVLTVVHQDWLNGKEYKCKVSNKGLPSSIEKTISKTKGQPREPQVYTLPPSREEMTKNQVSLTCEVKGFYPSDIAVEWESNGQPENNYKTTPPMLDSDGSFFLYSKLTVDKSRWQQGNVFSCSVMHEALHNHYTQKSLSLSPGSGGGGGTSATATPGA[about 120 residues with changes left out here]
light: DIVMTQSPSSLSVSAGDKVTMSCRASQGISSWLAWYQQKPWQPPKLLIYKASTLESGVPDRFTGSGSGTDFTLTISSVQAEDLAVYYCQQSYSTPWTFGGGTKLEIKGTVAAPSVFIFPPSDEQLKSGTASVVCLLNNFYPREAKVQWKVDNALQSGNSQESVTEQDSKDSTYSLSSTLTLSKADYEKHKVYACEVTHQGLSSPVTKSFNRGEC
notes: not restated for this mutant; also called xmPD-IL15 V49R/E46G; xmPD1-IL15 V49R E46G

Kd [7]: 0.084 nM
koff [7]: 0.000363 s⁻¹
kon [7]: 4.31e+06 M⁻¹ s⁻¹
Kd [8]: 561 nM
B2: xmPD-1-hIL15(wild-type) (other)
heavy 1: EVQLVESGGGLVKPGGSLELSCAASGFTFSSYWMSWVRQAPEKGLEWVAAISPSGGSTYYADSVKGRFTISRDNAKNTLFLQMTSLRSEDTAMYYCAKESWGAYYDLWGQGTTVTVSSASTKGPSVFPLAPCSRSTSESTAALGCLVKDYFPEPVTVSWNSGALTSGVHTFPAVLQSSGLYSLSSVVTVPSSNFGTQTYTCNVDHKPSNTKVDKTVERKCEVECPECPAPPVAGPSVFLFPPKPKDTLMISRTPEVTCVVVAVSHEDPEVQFNWYVDGVEVHNAKTKPREEQFNSTFRVVSVLTVVHQDWLNGKEYKCKVSNKGLPSSIEKTISKTKGQPREPQVYTLPPSREEMTKNQVSLTCEVKGFYPSDIAVEWESNGQPENNYKTTPPMLDSDGSFFLYSKLTVDKSRWQQGNVFSCSVMHEALHNHYTQKSLSLSPGSGGGGGTSATATPGA[about 120 residues left out here]
heavy 2: B1 heavy 1
light: B1 light

Where two headings read alike, the source gives them in different places. Each block holds one binder with its values, some of them ahead of it.
